PubChem BioAssay AID902 (National Center for Advancing Translational Sciences (NCATS), 2007)
The campaign covered roughly 130,000 compounds. About 1,900 (1.5%) were called active. The shares of active, inactive and inconclusive entries below differ from those in the screen. Calls follow the shape of the dose curve; as a rule, active = well fitted cell-killing curve with a large enough effect; inconclusive = small, poorly fitted or top-dose-only effect; inactive = no such curve, though single readings can be large or run the other way. Potencies beside an inconclusive call are fits to weak or partial responses and may not hold up.

Test: qHTS Screen for Compounds that Selectively Target Cancer Cells with p53 Mutations: Cytotoxicity of p53ts Cells at the Nonpermissive Temperature; also: nearly all actives have a fitted effect of over 55% in size
Conditions: H1299-p53A138V viability at 39C, ATP luminescence, 24 h; activity change, negative = cell killing: at 46.1 µM (top of the series)
% is scaled to controls: 0 for no effect and ±100 for the full control effect; potency is read from the fitted curve at half-maximal effect; tags tell the direction and shape of the fitted curve.

Row | Structure (SMILES) | activity change, negative = cell killing | Potency
1 | CC(=O)N(C1=NCCCS1)c1ccc(F)cc1 | inactive: -12% | 
2 | N#CC(C#N)=Cc1ccc(O)c(O)c1 |  | inconclusive: 15.8 µM [cytotoxic, partial curve]
3 | Cc1ccc(-c2nc3ccc(Cl)cn3c2Nc2ccccc2C)s1 |  | inconclusive: 20 µM [cytotoxic, single point]
4 | CC(=O)c1c(O)c(C)c(O)c(Cc2c(O)c3c(c(C(=O)/C=C\c4ccccc4)c2O)OC(C)(C)C=C3)c1O |  | inconclusive: 12.6 µM [cytotoxic, partial curve]
5 | CCCCCCC[n+]1ccc(-c2cc[n+](CCCCCCC)cc2)cc1 |  | inconclusive: 3.98 µM [cytotoxic, partial curve, poor fit]
6 | O=C(O)c1cc[c]([Hg][S]c2ncnc3nc[nH]c23)cc1 |  | inconclusive: 3.16 µM [cytotoxic, single point]
7 | Cc1ccc(Cl)cc1N1CCN(C(=O)C2CCN(Cc3nc(-c4ccc(Cl)cc4)oc3C)CC2)CC1 |  | active: 12.6 µM
8 | CCOc1ccc(NC(=O)c2ccc(F)c(S(=O)(=O)NCc3ccc4c(c3)OCO4)c2)cc1 |  | inconclusive: 15.8 µM [cytotoxic, single point]
9 | COc1ccc(-c2oc3cc(OC)ccc3c(=O)c2O)cc1 |  | inconclusive: 10 µM [cytotoxic, full curve, poor fit]
10 | COC(=O)/C(C)=C\CC12OC(C)(C)C3CC(C=C4C(=O)c5c(OC)c6c(c(CC=C(C)C)c5OC431)OC(C)(CCC=C(C)C)C=C6)C2=O (stereo not given) |  | active: 6.31 µM
11 | CCN(CC)c1ccc(C2C(C(N)=O)=C(C)Nc3nc(SCc4ccccc4)nn32)cc1 (stereo not given) | inactive: 26.9% | 
12 | Cc1ccccc1C(=O)Nc1ccc2nc(SCC(=O)N(C)c3ccccc3)sc2c1 |  | inconclusive: 2.51 µM [cytotoxic, partial curve]
13 | Cn1c(SCC(=O)Nc2ccccc2F)nc2c([nH]c3ccccc32)c1=O |  | inconclusive: 10 µM [cytotoxic, partial curve]
14 | COc1ccc(CN2CCN(c3ncnc4sc5c(c34)CCCC5)CC2)cc1F |  | inconclusive: 15.8 µM [cytotoxic, single point]
15 | CN(C)CCN(C)CCc1ccc(Cl)c(Cl)c1 |  | inconclusive: 31.6 µM [cytotoxic, single point]
16 | COc1ccc(N2CCN(C(=O)C3CCCN(S(=O)(=O)c4ccc5c(c4)CCCN5C(C)=O)C3)CC2)cc1 (stereo not given) |  | inconclusive: 0.316 µM [cytotoxic, full curve, poor fit]
17 | Nc1c(C(=O)Nc2ccc(Br)cc2F)sc2nc3c(cc12)N1CCC3CC1 |  | inconclusive: 25.1 µM [cytotoxic, single point]
18 | Cc1cccc(-n2c(/C=C/c3c(C)[nH]c4ccccc34)nc3ccccc3c2=O)c1 |  | inconclusive: 10 µM [cytotoxic, partial curve]
19 | CC1CN=C(Nc2cccc3ccccc23)S1 (stereo not given) |  | inconclusive: 31.6 µM [cytotoxic, single point]
20 | CCC(C)NC(=O)c1c(N)n(Cc2ccc3c(c2)OCO3)c2nc3ccccc3nc12 (stereo not given) |  | inconclusive: 15.8 µM [cytotoxic, single point]

Row | Structure (SMILES) | activity change, negative = cell killing | Potency
21 | CCOc1ccc(-c2cc(C(=O)N3CCN(c4cccc(C(F)(F)F)c4)CC3)c3ccccc3n2)cc1 |  | inconclusive: 2.51 µM [cytotoxic, partial curve]
22 | Nc1c(C(=O)NCCc2ccccc2)c2nc3ccccc3nc2n1CCN1CCOCC1 |  | inconclusive: 20 µM [cytotoxic, single point]
23 | c1ccc(CCCCN2CCC(c3ccccc3)CC2)cc1 |  | inconclusive: 25.1 µM [cytotoxic, partial curve]
24 | CC(C)c1ccc(N2C(=O)NC(=O)/C(=C/c3cnc(-c4ccccc4)nc3)C2=O)cc1 | inactive: 15.3% | 
25 | CCOc1ccc(C(=O)Nc2cc(NC(=O)c3ccco3)ccc2OC)cc1Br |  | inconclusive: 10 µM [cytotoxic, partial curve]
26 | Cc1c(C(=O)c2ccc3ccccc3c2)c2cccc3c2n1[C@H](CN1CCOCC1)CO3 | inactive: -8.63% | 
27 | Cc1ccc(CCNC(=O)C2CCCN(Cc3nc(-c4cccc(Cl)c4)oc3C)C2)cc1 (stereo not given) |  | inconclusive: 31.6 µM [cytotoxic, single point]
28 | COc1ccc2c(c1)c(CCN1CCOCC1)c(C)n2C(=O)c1cccc(Cl)c1Cl |  | inconclusive: 31.6 µM [cytotoxic, single point]
29 | Cc1ccc(NC(=O)CSc2nc(-c3ccco3)cc(C(F)(F)F)n2)c(C)c1 |  | inconclusive: 15.8 µM [cytotoxic, single point]
30 | O=c1[nH]c(=O)n(-c2cccc(Cl)c2)c(O)c1C=NCCCN1CCOCC1 | inactive: -16.9% | 
31 | Cn1ncc2c(NCc3ccc(F)cc3)ncnc21 |  | inconclusive: 0.1 µM [cytotoxic, full curve, poor fit]
32 | COc1cc(-c2nc3ccc(Cl)cn3c2Nc2ccc3c(c2)OCCO3)ccc1O |  | inconclusive: 15.8 µM [cytotoxic, single point]
33 | NO |  | inconclusive: 5.01 µM [cytotoxic, partial curve]
34 | NC(N)=Nc1ccc2[nH]c3c(c2c1)C[C@]1(O)[C@@H]2Cc4ccc(O)c5c4[C@]1(CCN2CC1CC1)[C@H]3O5 |  | active: 25.1 µM
35 | CN1C[C@H](CNC(=O)OCc2ccccc2)C[C@H]2c3cccc4c3c(cn4C)C[C@@H]21 |  | inconclusive: 12.6 µM [cytotoxic, single point]
36 | Cc1ccc2oc(-c3ccccc3)cc(=O)c2c1 |  | inconclusive: 12.6 µM [cytotoxic, partial curve]
37 | CCC(CC)N1CCN(C(=O)Cc2ccccc2)CC1 |  | inconclusive: 2.82 µM [cytotoxic, full curve, poor fit]
38 | CC1SC2(CN3CCC2CC3)NC1=O (stereo not given) | inactive: 2.96% | 
39 | COc1cc(OC)cc(C(=O)Nc2nc(-c3nnn(-c4ccc(C)cc4)c3C)ns2)c1 |  | inconclusive: 12.6 µM [cytotoxic, single point]
40 | CCOc1ccccc1CN(CCc1ccc2c(c1)OCO2)Cc1ccc(CC)cc1 |  | inconclusive: 7.94 µM [cytotoxic, partial curve]
